The whole screen tested about 48,000 compounds, of which about 1,200 (2.5%) were called active. Roughly 2% stayed inconclusive and do not appear here.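 The calls were made as follows: active = activation of at least 60% and not above a set upper limit (about 1 call in 100 departs from these limits); inconclusive = activation of 40% to 60%, or above that upper limit; inactive = activation under 40%.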 Some of the results follow.
target: Probable G-protein coupled receptor 32 (Homo sapiens) (UniProt O75388); assay: qHTS for Agonists of Human Resolvin D1 Receptor DRV1; conditions: CHO-K1 GPR32 beta-arrestin PathHunter luminescence, 90 min; at 76.9 µM; active compounds read high; zero percent set by DMSO-only wells; also: 0% is about no effect
Summary of the method: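 GPR32 activation in stably transfected CHO-K1 cells, detected as beta-arrestin recruitment by enzyme-fragment complementation. Compound exposure: 90 min, 37 °C.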

UniProt O75388, sequence (O75388 whole entry, looked up, the tested form may be a part): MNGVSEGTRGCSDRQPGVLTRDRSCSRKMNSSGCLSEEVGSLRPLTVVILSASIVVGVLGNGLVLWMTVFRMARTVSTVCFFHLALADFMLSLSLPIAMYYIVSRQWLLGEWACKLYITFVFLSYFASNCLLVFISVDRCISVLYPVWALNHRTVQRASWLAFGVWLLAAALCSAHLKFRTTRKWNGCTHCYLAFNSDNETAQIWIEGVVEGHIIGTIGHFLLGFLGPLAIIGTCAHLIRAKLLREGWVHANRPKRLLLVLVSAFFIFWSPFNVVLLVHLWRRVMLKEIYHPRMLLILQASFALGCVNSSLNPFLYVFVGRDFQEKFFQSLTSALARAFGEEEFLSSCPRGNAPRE

SMILES | activation
COc1ccccc1N1CCN(C(CNC(=O)C(=O)NCc2ccc(F)cc2)c2cccnc2)CC1 (stereo not drawn) | inactive: 7.73%
COc1cccc(N2CCN(C(=O)CCCCCn3c(=O)[nH]c4ccccc4c3=O)CC2)c1 | inactive: -17.8%
CC1CCn2c(nc3cc(C(=O)NCc4ccc(OC(C)C)cc4)ccc32)C1 (stereo not drawn) | inactive: -13.3%
CC(C)c1ccc(NC(=O)CSc2nc3ccccc3nc2Cc2ccccc2)cc1 | inactive: -6.92%
COc1ccccc1CNC(=O)C1CCN(S(=O)(=O)c2ccc3c(c2)CCCN3C(C)=O)CC1 | inactive: -1.32%
CCc1ccc(CNC(=O)c2cc3c(=O)n(Cc4cccs4)ccc3nc2C)cc1 | inactive: -27.9%
CCC(C(=O)NC1CCC(C)CC1)n1nc(C)c2sc3ccccc3c2c1=O (stereo not drawn) | inactive: -16.7%
CCc1nc2nc(C)c(NS(=O)(=O)c3ccc(C)cc3)c(=O)n2[nH]1 | inactive: 14.6%
CN(C)CCNC(=O)C(=O)NCC(c1cccnc1)N1CCN(c2ccc(F)cc2)CC1 (stereo not drawn) | inactive: -3.94%
CCOc1ccccc1NC(=O)Cn1nnc(C(=O)NCc2ccc(F)cc2)c1N | inactive: -9.78%
COc1ccc(Cn2ccc3nc(C)c(C(=O)N4CCN(c5ccc(OC)cc5)CC4)cc3c2=O)cc1 | inactive: -14.1%
Cc1nc2c(OCc3ccccc3)cccn2c1CC#N | inactive: 3.2%
Cc1cc(C)cc(NC(=O)Cc2c(C(=O)O)c(C)cn2C)c1 | inactive: 0.889%
O=C(Cn1cc(SCc2ccccc2F)c2ccccc21)N1CCCCC1 | inactive: -9.03%
O=C(NCc1ccco1)c1ccc2c(c1)N(Cc1c(F)cccc1Cl)C(=O)c1ccccc1S2 | inactive: -10.6%
COc1ccc(-c2c(C)nn3c(C(F)(F)F)cc(-c4ccccc4)nc23)cc1 | inactive: -21.7%
COc1ccc(OC)c(NC(=O)c2cc(C3CC3)nc3c2c(C)nn3-c2ccc(C)cc2)c1 | inactive: 1.8%
COc1ccc(C(=O)NCc2ccc3c(c2)CCN3C(=O)c2ccc(C)cc2)cc1 | inactive: -23%
CCCCCCCCCCCCCCCCC(C(=O)O)C(O)(CC(=O)O)C(=O)O (stereo not drawn) | inactive: 12.3%
Cc1ccc(-n2nc3ccc(NC(=O)COc4ccccc4)cc3n2)cc1Cl | inactive: -13.7%
Cc1cccc(-n2c(=O)c3ccccc3n(Cc3ccccc3)c2=O)c1 | inactive: -35.4%

SMILES | activation
CCOc1ccc(-n2c(=O)c3c4c(sc3n(CC(=O)NC(C)CC)c2=O)CCCC4)cc1 (stereo not drawn) | inactive: 6.24%
Cc1ccc(CNC(=O)C2CCN(Cc3nc(-c4cccc(Br)c4)oc3C)CC2)cc1 | inactive: -8.93%
CC(=O)c1cccc(NC(=O)C2CCN(S(=O)(=O)c3ccc4[nH]c(=O)ccc4c3)CC2)c1 | inactive: -14.9%
CCOc1ccc(N(CC)C(=O)c2nn(-c3ccc(OC)cc3)c(=O)c3c2c2ccccc2n3C)cc1 | inactive: -8.56%
O=C(CSc1nc2c([nH]c3ccccc32)c(=O)n1-c1cccc(C(F)(F)F)c1)N1CCc2ccccc21 | inactive: -7.62%
CCc1cc2c(cc(C(=O)OC)n2Cc2nc(-c3ccc(C)cc3)oc2C)s1 | inactive: -18.1%
Cc1c(C(=O)N2CCC(C)CC2)c(S(=O)(=O)Nc2cccc(C(F)(F)F)c2)c(C)n1C | inactive: -14.9%
COc1ccc(OC)c(CCNC(=O)c2cnn(-c3ccc(C)cc3C)c2C2CCN(C(=O)OC(C)(C)C)CC2)c1 | inactive: -24.5%
CCOC(=O)c1c(NC(=O)COc2ccc(C)cc2C(C)(C)C)sc2c1CCC(C)C2 (stereo not drawn) | inactive: 7.69%
Cc1nn(S(=O)(=O)c2ccc(C(C)(C)C)cc2)c(C)c1S(=O)(=O)N1CCC(C)CC1 | inactive: 0.525%
Cc1ccc(Cn2c(CNC(=O)Cc3cccc(C)c3)nc3cccnc32)cc1 | inactive: -14.4%
CC(=O)c1ccc(N2CCN(S(=O)(=O)c3cc(-c4noc(C)n4)ccc3C)CC2)cc1 | inactive: 13.6%
COc1ccc(CNC(=O)Cn2c(=O)ccc3cc(S(=O)(=O)N4CCCC4)ccc32)cc1 | inactive: 11.5%
CC(=O)Nc1ccc(NC(=O)C2(c3cccs3)CCOCC2)cc1 | inactive: -8.47%
COCCN1C(=O)c2oc3ccc(C)cc3c(=O)c2C12C(=O)N(C)c1ccccc12 (stereo not drawn) | inactive: -7.97%
COC(=O)c1cc2oc3ccccc3c2n1Cc1nc(-c2cccc(C)c2)oc1C | inactive: 0.674%
COc1ccc2[nH]cc(CCNC(=O)c3cnn(-c4ccc(C)cc4)c3C3CCN(C(=O)OC(C)(C)C)CC3)c2c1 | inactive: -22.6%
COc1ccccc1CNC(=O)c1cnc(SC)nc1C | inactive: 23.8%
COCC(=O)Nc1cccc(-c2nc3cccnc3s2)c1 | inactive: -9.52%
CC(C)N(Cc1ccccc1)C(=O)C1CCCN(c2ncnc3onc(-c4ccc(F)cc4)c23)C1 (stereo not drawn) | inactive: -8.99%
CCOC(=O)c1ccc(N2C(=O)c3[nH]nc(-c4ccc(OCC)cc4)c3C2c2cccs2)cc1 (stereo not drawn) | inactive: 7.53%

SMILES | activation
CCOC(=O)c1ccc(NC(=O)CC2Nc3ccccc3NC2=O)cc1 (stereo not drawn) | inactive: -29%
Cc1cc(-c2ccc(S(=O)(=O)N3CCN(c4ccc(Cl)cc4)CC3)s2)on1 | inactive: 18.1%
COc1ccc(NC(=O)c2sc3nc4c(c(-c5ccc(OC)cc5)c3c2N)C(=O)CC(C)(C)C4)cc1 | inactive: 0.189%
COc1ccc(-c2nc3scc(CCNC(=O)c4cccc(Br)c4)n3n2)cc1 | active: 71.2%
Cc1cc2n(n1)CCC(=O)N2Cc1ccc(C(=O)Nc2ccc(F)cc2F)cc1 | inactive: -12.7%
O=C(Nc1cc(-c2nc3cc(Cl)ccc3o2)ccc1Cl)c1cc([N+](=O)[O-])ccc1N1CCOCC1 | inactive: 19.2%
Cc1ccc(CNCc2cccn2-c2nnc(N3CCCC3)s2)cc1 | inactive: -9.24%
Cc1ccc(-c2nnc(Nc3ccc(F)cc3)c3ccccc23)cc1S(=O)(=O)N1CCN(C)CC1 | inactive: 0.259%
O=C(c1ccccc1Cl)N1CCCCC1CCN1CCOCC1 (stereo not drawn) | inactive: -15.6%
CCOc1cccc2c1Oc1nc(-c3ccccc3)nc(SCC(=O)Nc3ccc(F)cc3)c1C2 | inactive: 11.2%
CCN(Cc1ccccc1)C(=O)c1cc2c(=O)[nH]c3ccc(C)cc3c2s1 | inactive: -5.95%
CCc1nnc(SCC(=O)Nc2cc(OC)ccc2OC)nc1CC | inactive: -11.5%
Cc1ccc(CCNC(=O)c2cc3n(n2)CCCN(Cc2ccc(C)cc2)C3=O)cc1 | inactive: 0.807%
Cc1cccc(Cn2c(COc3ccc(Cl)cc3)nc3ccccc32)c1 | inactive: 13.6%
CCOc1ccc(S(=O)(=O)N(CC(=O)NCCSc2ccc(C)cc2)c2ccccc2)cc1 | inactive: 20.7%
Cc1ccc(NC(=O)N2CCN(c3ccc(Cl)c(Cl)c3)CC2)cc1 | inactive: -2.58%
COc1ccc(-c2nc(CN3CCC(C(=O)NCCc4ccccc4)CC3)c(C)o2)cc1OC | inactive: -8.53%
CCCCn1cc(S(=O)(=O)c2ccc(C)c(C)c2)c(=O)c2cc(F)c(N(CC)CC)cc21 | inactive: -5.28%
CCC(=O)N1CCc2cc(CNC(=O)c3ccc(OC)cc3)ccc21 | inactive: -12%
CCn1nc(-c2ccccc2)c(-c2ccccc2)c(C(=O)Nc2nc(C)c(C(C)=O)s2)c1=O | inactive: -10.5%
Cn1c(=O)c(=O)n(C)c2cc(N3CCCC3)c(NC(=O)c3ccccc3F)cc21 | inactive: 3.45%

SMILES | activation
O=C(Nc1sc2c(c1C(=O)Nc1cccc(Cl)c1)CCCC2)c1cccs1 | inactive: -4.16%
Cc1ccc(NC(=O)CSc2nc(=O)n(Cc3ccco3)c3c2CCC3)cc1F | inactive: -34.8%
CCC(=O)N1CCc2cc(CNC(=O)Cc3ccc(F)cc3)ccc21 | inactive: -23.9%
CCOc1ccc(-c2nnc(SCC(=O)Nc3ccc(C)cc3Cl)o2)cc1 | inactive: 18.1%
Cc1ccc2c(c1)-c1onc(C(=O)N3CCN(c4cc(Cl)ccc4C)CC3)c1CO2 | inactive: 6.62%
COC(=O)c1ccccc1NC(=O)c1cc(CN2CCCC2)on1 | inactive: -10.6%
N[C@H](C(=O)O)[C@H](Cc1ccccc1)C(=O)O | inactive: -7.4%
Cc1ccc(NC(=O)c2cc(S(=O)(=O)NC3CCCCC3)ccc2F)cc1Cl | inactive: -63.5%
CCn1nnc2cc(C(=O)Nc3ccc(C)c(Cl)c3)ccc21 | inactive: 4.92%
Cc1ccc(N(CC(=O)Nc2cc(C)ccc2C)S(=O)(=O)c2c(C)noc2C)cc1 | inactive: 11.8%
O=S(=O)(c1ccc(Cl)cc1)c1nnn2c1nc(NCc1ccc3c(c1)OCO3)c1sccc12 | inactive: -5.78%
Cc1ccc(N=C2NC(=O)CC(C(=O)Nc3cc(C(F)(F)F)ccc3Cl)S2)cc1 (stereo not drawn) | active: 80.5%
CCOc1ccccc1NC(=O)C1CCN(S(=O)(=O)c2ccc3c(c2)CCCN3C(C)=O)CC1 | inactive: -0.454%
COc1ccc(-n2c(SCC(=O)c3ccccc3)nc3c([nH]c4ccccc43)c2=O)cc1 | inactive: 0.102%
CCCCN(CC)CCNC(=O)C1CCCN(c2ncnc3onc(C)c23)C1 (stereo not drawn) | inactive: 3.24%
COc1cc(Cl)c(NS(=O)(=O)c2cc(-c3cc(C)no3)ccc2OC)c(OC)c1 | inactive: -15.4%
CC(=O)c1ccc(NC(=O)c2ccc(-n3cnnc3)cc2)cc1 | inactive: -1.31%
CCC(=O)N1c2ccccc2CC1C(=O)NCc1ccc(N(C)C)cc1 (stereo not drawn) | inactive: -6.81%
Cc1ccc(COC(=O)c2[nH]c3c(c2C)C(=O)CC(c2ccc(N(C)C)cc2)C3)cc1 (stereo not drawn) | inactive: -2.41%
CCS(=O)(=O)c1ncc(Cl)c(C(=O)Nc2ccccc2)n1 | inactive: -2.16%

Reference: PubChem BioAssay AID1346428 (National Center for Advancing Translational Sciences (NCATS), 2018)
